The other results are listed elsewhere or left out.
B1: PhoQ; a variant is named by its letters at X, in order, P23837 (parent)
chain: MKKLLRLFFPLSLRVRFLLATAAVVLVLSLAYGMVALIGYSVSFDKTTFRLLRGESNLFYTLAKWENNKLHVELPENIDKQSPTMTLIYDENGQLLWAQRDVPWLMKMIQPDWLKSNGFHEIEADVNDTSLLLSGDHSIQQQLQEVREDDDDAEMTHSVAVNVYPATSRMPKLTIVVVDTIPVELKSSYMVWSWFIYVLSANLLLVIPLLWVAAWWSLRPIEALAKEVRELEEHNRELLNPATTRELTSLVRNLNRLLKSERERYDKYRTTLTDLTHSLKTPLXXLQXXLRSLRSEKMSVSDAEPVMLEQISRISQQIGYYLHRASMRGGTLLSRELHPVAPLLDNLTSALNKVYQRKGVNISLDISPEISFVGEQNDFVEVMGNVLDNACKYCLEFVEISARQTDEHLYIVVEDDGPGIPLSKREVIFDRGQRVDTLRPGQGVGLAVAREITEQYEGKIVAGESMLGGARMEVIFGRQHSAPKDE

Variants of: B1
Experiment: enrichment ratio after two sorts for PhoP signalling (ratio (wild type AVST 3.29)); higher = more functional
Settings: with PhoP (E. coli)

| Variant | enrichment ratio |
| --- | --- |
| AWYY | ≤ 0.25 |
| QFAT | ≤ 0.25 |
| YGFP | ≤ 0.25 |
| VYQY | ≤ 0.25 |
| RWWA | ≤ 0.25 |
| VTSR | ≤ 0.25 |
| MNWS | 7.32 |
| NLQY | ≤ 0.25 |
| FHWP | ≤ 0.25 |
| KRHI | ≤ 0.25 |
| RNCK | ≤ 0.25 |
| GTVG | 1.38 |
| FPID | ≤ 0.25 |
| TQRP | ≤ 0.25 |
| TAKR | ≤ 0.25 |
| RAQL | ≤ 0.25 |
| VKSA | ≤ 0.25 |
| MQPQ | ≤ 0.25 |
| IHSA | ≤ 0.25 |
| FSRW | ≤ 0.25 |
| YIYL | ≤ 0.25 |
| NRDP | ≤ 0.25 |
| PPMV | ≤ 0.25 |
| INDF | ≤ 0.25 |
| RSYG | ≤ 0.25 |
| DTLY | ≤ 0.25 |

| Variant | enrichment ratio |
| --- | --- |
| VPIF | ≤ 0.25 |
| KHHE | ≤ 0.25 |
| LATK | ≤ 0.25 |
| ENGA | ≤ 0.25 |
| VKAR | ≤ 0.25 |
| QAPL | ≤ 0.25 |
| NKPD | ≤ 0.25 |
| QPCT | ≤ 0.25 |
| PKPW | ≤ 0.25 |
| YGNS | ≤ 0.25 |
| ISAV | 0.486 |
| LNQY | ≤ 0.25 |
| NNTM | 3.1 |
| NMFS | ≤ 0.25 |
| AWYH | ≤ 0.25 |
| VKTR | ≤ 0.25 |
| YSTG | ≤ 0.25 |
| LKRE | ≤ 0.25 |
| ACSP | 0.356 |
| SDVC | 11.5 |
| IKTI | ≤ 0.25 |
| KPMH | ≤ 0.25 |
| LDMT | ≤ 0.25 |
| ILMK | ≤ 0.25 |
| GFSG | ≤ 0.25 |
| YAHF | ≤ 0.25 |

| Variant | enrichment ratio |
| --- | --- |
| FLPG | ≤ 0.25 |
| RKSK | ≤ 0.25 |
| YGHF | ≤ 0.25 |
| YTEY | ≤ 0.25 |
| KIHC | ≤ 0.25 |
| WVSC | ≤ 0.25 |
| LEMI | ≤ 0.25 |
| DVDR | ≤ 0.25 |
| PECY | ≤ 0.25 |
| NFGE | ≤ 0.25 |
| SKCL | 11.8 |
| LMHE | ≤ 0.25 |
| SYLQ | 2.49 |
| KPFM | ≤ 0.25 |
| DAFC | ≤ 0.25 |
| PIMC | ≤ 0.25 |
| ENYA | ≤ 0.25 |
| PPHC | ≤ 0.25 |
| PCCC | ≤ 0.25 |
| FFVP | ≤ 0.25 |
| EMGT | ≤ 0.25 |
| NNLS | ≤ 0.25 |
| LITP | ≤ 0.25 |
| QPNM | ≤ 0.25 |
| AIMF | 0.847 |
| GEHH | ≤ 0.25 |

| Variant | enrichment ratio |
| --- | --- |
| DLIC | ≤ 0.25 |
| QLDT | ≤ 0.25 |
| RNAN | ≤ 0.25 |
| TEIV | ≤ 0.25 |
| RQET | ≤ 0.25 |
| AWTW | ≤ 0.25 |
| TTPQ | ≤ 0.25 |
| WHQF | ≤ 0.25 |
| LMHW | ≤ 0.25 |
| SDIS | 0.255 |
| YHVD | ≤ 0.25 |
| CPLS | ≤ 0.25 |
| PVGY | ≤ 0.25 |
| PVRN | ≤ 0.25 |
| VWMI | ≤ 0.25 |
| GPKI | ≤ 0.25 |
| WLHC | ≤ 0.25 |
| HPIR | ≤ 0.25 |
| FYSH | ≤ 0.25 |
| NQAV | ≤ 0.25 |
| VAFL | 3.05 |
| IQAC | ≤ 0.25 |
| DIYT | ≤ 0.25 |
| IDGV | ≤ 0.25 |
| MHRL | ≤ 0.25 |
| LQYH | ≤ 0.25 |

| Variant | enrichment ratio |
| --- | --- |
| WIWP | ≤ 0.25 |
| RVFP | ≤ 0.25 |
| FIDR | ≤ 0.25 |
| QHTE | ≤ 0.25 |
| KENM | ≤ 0.25 |
| NIIR | ≤ 0.25 |
| WLCS | ≤ 0.25 |
| TEYM | ≤ 0.25 |
| GYLY | ≤ 0.25 |
| MIYP | ≤ 0.25 |
| KGDF | ≤ 0.25 |
| KLHN | ≤ 0.25 |
| MCLS | 3.86 |
| YLRC | 0.276 |
| QPTL | ≤ 0.25 |
| KLRA | ≤ 0.25 |
| PAFK | ≤ 0.25 |
| MNLS | 3.95 |
| PPQQ | ≤ 0.25 |
| IDYR | ≤ 0.25 |
| GSVV | 2.64 |
| TLID | ≤ 0.25 |
| RTLI | ≤ 0.25 |
| SDNK | ≤ 0.25 |
| HVPA | ≤ 0.25 |
| EFDA | ≤ 0.25 |

| Variant | enrichment ratio |
| --- | --- |
| QNFQ | ≤ 0.25 |
| TTIL | ≤ 0.25 |
| KGFI | ≤ 0.25 |
| IIPC | ≤ 0.25 |
| FNDQ | ≤ 0.25 |
| SIRI | ≤ 0.25 |
| FRKM | ≤ 0.25 |
| MKLF | ≤ 0.25 |
| RCCI | ≤ 0.25 |
| EHGK | ≤ 0.25 |
| TFDK | ≤ 0.25 |
| NCYT | ≤ 0.25 |
| DKAW | ≤ 0.25 |
| SYWK | ≤ 0.25 |
| QEHE | ≤ 0.25 |
| QEYW | ≤ 0.25 |
| SEDC | ≤ 0.25 |
| ICWE | ≤ 0.25 |
| LQLC | ≤ 0.25 |
| NTTM | ≤ 0.25 |
| KFWI | ≤ 0.25 |
| EYIK | ≤ 0.25 |
| WHPS | ≤ 0.25 |

Source: a collection of fitness landscapes (doi:10.1126/science.1257360)
